Results: a collection of fitness landscapes (doi:10.1016/j.celrep.2020.107928)
In all, about 81,000 sequences were measured (“one-hybrid fitness for binding NBS DNA”: median about -0.1, highest 2% from about 0.36 on). Some of the results follow.

B1: Caulobacter ParB omega fusion; a variant is named by its letters at X, in order, B8GW30 (parent)
chain: MESVVVGEPGMSEGRRGLGRGLSALLGEVDAAPAQAPGEQLGGSREAPIEILQRNPDQPRRTFREEDLEDLSNSIREKGVLQPILVRPSPDTAGEYQIVAGERAWRAAQRAGLKTVPIMVRELDDLAVLEIGIIENVQRADLNVLEEALSYKVLMEKFERTQENIAQTIGKSXSHVANXMRLLXLPDEVQSYLVSGELTAXHARAIAAAADPVALAKQIIEGGLSVRETEALARKAPNLSAGKSKGGRPPRVKDTDTQALESDLSSVLGLDVSIDHRGSTGTLTITYATLEQLDDLCNRLTRGI

Variants of: B1
Assay: one-hybrid fitness for binding NBS DNA (the Noc-binding site; scaled: cognate 1, non-cognate 0); higher = stronger binding
Settings: with NBS DNA site
Procedure, shortened: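 Fitness is the rescaled log change in variant-to-wild-type read ratio, measured by Illumina sequencing of plasmids before and after bacterial one-hybrid selection. The scale puts cognate at 1 and non-cognate at 0. Selection of Caulobacter ParB libraries, four specificity codons randomised, took place in E. coli USO with a HIS3 reporter, site 19 bp from the promoter, over 48 hours at 37°C on M9-minus-histidine with 0.1 mM IPTG and 5 mM 3-AT.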

RAQW and DYEV cannot be ordered by “one-hybrid fitness for binding NBS DNA” value: no more than 0.2 for the first, no more than 0.2 for the second.

KCAS and MRNY cannot be ordered by “one-hybrid fitness for binding NBS DNA” value: no more than 0.2 for the first, no more than 0.2 for the second.

MTTN and ESTT cannot be ordered by “one-hybrid fitness for binding NBS DNA” value: no more than 0.2 for the first, no more than 0.2 for the second.

WICC and YYNH cannot be ordered by “one-hybrid fitness for binding NBS DNA” value: no more than 0.2 for the first, no more than 0.2 for the second.

GMAS and WPKV cannot be ordered by “one-hybrid fitness for binding NBS DNA” value: no more than 0.2 for the first, no more than 0.2 for the second.

GPAL and SSLP cannot be ordered by “one-hybrid fitness for binding NBS DNA” value: no more than 0.2 for the first, no more than 0.2 for the second.

RKKW and SWFT cannot be ordered by “one-hybrid fitness for binding NBS DNA” value: no more than 0.2 for the first, no more than 0.2 for the second.

YWEG and RKTL cannot be ordered by “one-hybrid fitness for binding NBS DNA” value: no more than 0.2 for the first, no more than 0.2 for the second.

YDMR and PAHE cannot be ordered by “one-hybrid fitness for binding NBS DNA” value: no more than 0.2 for the first, no more than 0.2 for the second.

LMTR and TENL cannot be ordered by “one-hybrid fitness for binding NBS DNA” value: no more than 0.2 for the first, no more than 0.2 for the second.

VHTL and TPRV cannot be ordered by “one-hybrid fitness for binding NBS DNA” value: no more than 0.2 for the first, no more than 0.2 for the second.

HPDT and SVVM cannot be ordered by “one-hybrid fitness for binding NBS DNA” value: no more than 0.2 for the first, no more than 0.2 for the second.

CVQG and HYEG cannot be ordered by “one-hybrid fitness for binding NBS DNA” value: no more than 0.2 for the first, no more than 0.2 for the second.

SHKS and FAMS cannot be ordered by “one-hybrid fitness for binding NBS DNA” value: no more than 0.2 for the first, no more than 0.2 for the second.

RDIC and VVWS cannot be ordered by “one-hybrid fitness for binding NBS DNA” value: no more than 0.2 for the first, no more than 0.2 for the second.

QCYN and YFMY cannot be ordered by “one-hybrid fitness for binding NBS DNA” value: no more than 0.2 for the first, no more than 0.2 for the second.

RTDM and RDWT cannot be ordered by “one-hybrid fitness for binding NBS DNA” value: no more than 0.2 for the first, no more than 0.2 for the second.

Compared with RKMT, SNCL is lower in “one-hybrid fitness for binding NBS DNA” value: 0.587 for the first, no more than 0.2 for the second.

SHHD and PPEC cannot be ordered by “one-hybrid fitness for binding NBS DNA” value: no more than 0.2 for the first, no more than 0.2 for the second.

Compared with QHDT, FSIC is lower in “one-hybrid fitness for binding NBS DNA” value: 0.344 for the first, no more than 0.2 for the second.

HHYV and VDSE cannot be ordered by “one-hybrid fitness for binding NBS DNA” value: no more than 0.2 for the first, no more than 0.2 for the second.

Going from QRLV to REAK, the “one-hybrid fitness for binding NBS DNA” value falls from 0.331 to no more than 0.2.

QAAK and YSVF cannot be ordered by “one-hybrid fitness for binding NBS DNA” value: no more than 0.2 for the first, no more than 0.2 for the second.

GYEN and GNFA cannot be ordered by “one-hybrid fitness for binding NBS DNA” value: no more than 0.2 for the first, no more than 0.2 for the second.

YGNG and APHK cannot be ordered by “one-hybrid fitness for binding NBS DNA” value: no more than 0.2 for the first, no more than 0.2 for the second.

WVEP and VCIT cannot be ordered by “one-hybrid fitness for binding NBS DNA” value: no more than 0.2 for the first, no more than 0.2 for the second.

CYNG and LFPS cannot be ordered by “one-hybrid fitness for binding NBS DNA” value: no more than 0.2 for the first, no more than 0.2 for the second.

IQKL and YPPN cannot be ordered by “one-hybrid fitness for binding NBS DNA” value: no more than 0.2 for the first, no more than 0.2 for the second.

PTKD and KVES cannot be ordered by “one-hybrid fitness for binding NBS DNA” value: no more than 0.2 for the first, no more than 0.2 for the second.

Going from NLWT to QIRV, the “one-hybrid fitness for binding NBS DNA” value rises from no more than 0.2 to 0.285.

WIAI and LVPV cannot be ordered by “one-hybrid fitness for binding NBS DNA” value: no more than 0.2 for the first, no more than 0.2 for the second.

HRQT and HAPN cannot be ordered by “one-hybrid fitness for binding NBS DNA” value: no more than 0.2 for the first, no more than 0.2 for the second.

First: QMDS
Second: KRPS
The “one-hybrid fitness for binding NBS DNA” value of the first is lower: no more than 0.2 for the first, 0.228 for the second.

RIFC and YGCL cannot be ordered by “one-hybrid fitness for binding NBS DNA” value: no more than 0.2 for the first, no more than 0.2 for the second.

PKDA and NCFS cannot be ordered by “one-hybrid fitness for binding NBS DNA” value: no more than 0.2 for the first, no more than 0.2 for the second.

YCRA and NAAM cannot be ordered by “one-hybrid fitness for binding NBS DNA” value: no more than 0.2 for the first, no more than 0.2 for the second.

CDRV and WTHY cannot be ordered by “one-hybrid fitness for binding NBS DNA” value: no more than 0.2 for the first, no more than 0.2 for the second.

QHQI and QLDS cannot be ordered by “one-hybrid fitness for binding NBS DNA” value: no more than 0.2 for the first, no more than 0.2 for the second.

TYQT and HLNI cannot be ordered by “one-hybrid fitness for binding NBS DNA” value: no more than 0.2 for the first, no more than 0.2 for the second.

MLTS and TFTV cannot be ordered by “one-hybrid fitness for binding NBS DNA” value: no more than 0.2 for the first, no more than 0.2 for the second.

HMHA and HPES cannot be ordered by “one-hybrid fitness for binding NBS DNA” value: no more than 0.2 for the first, no more than 0.2 for the second.

FLRA and TGFR cannot be ordered by “one-hybrid fitness for binding NBS DNA” value: no more than 0.2 for the first, no more than 0.2 for the second.

PKLD and NYAH cannot be ordered by “one-hybrid fitness for binding NBS DNA” value: no more than 0.2 for the first, no more than 0.2 for the second.

LTIR and TTGI cannot be ordered by “one-hybrid fitness for binding NBS DNA” value: no more than 0.2 for the first, no more than 0.2 for the second.

EVML and DNKR cannot be ordered by “one-hybrid fitness for binding NBS DNA” value: no more than 0.2 for the first, no more than 0.2 for the second.

VNVV and PDNH cannot be ordered by “one-hybrid fitness for binding NBS DNA” value: no more than 0.2 for the first, no more than 0.2 for the second.

IRFW and QHGW cannot be ordered by “one-hybrid fitness for binding NBS DNA” value: no more than 0.2 for the first, no more than 0.2 for the second.

QHHI and GHVV cannot be ordered by “one-hybrid fitness for binding NBS DNA” value: no more than 0.2 for the first, no more than 0.2 for the second.

VACS and RAWA cannot be ordered by “one-hybrid fitness for binding NBS DNA” value: no more than 0.2 for the first, no more than 0.2 for the second.

AYLL and LCPK cannot be ordered by “one-hybrid fitness for binding NBS DNA” value: no more than 0.2 for the first, no more than 0.2 for the second.

FSKA and MRMW cannot be ordered by “one-hybrid fitness for binding NBS DNA” value: no more than 0.2 for the first, no more than 0.2 for the second.

PVRH and LRND cannot be ordered by “one-hybrid fitness for binding NBS DNA” value: no more than 0.2 for the first, no more than 0.2 for the second.

YYEW and SHGG cannot be ordered by “one-hybrid fitness for binding NBS DNA” value: no more than 0.2 for the first, no more than 0.2 for the second.

TERM and YTEG cannot be ordered by “one-hybrid fitness for binding NBS DNA” value: no more than 0.2 for the first, no more than 0.2 for the second.

ESPC and QGPA cannot be ordered by “one-hybrid fitness for binding NBS DNA” value: no more than 0.2 for the first, no more than 0.2 for the second.

WAGC and TKRV cannot be ordered by “one-hybrid fitness for binding NBS DNA” value: no more than 0.2 for the first, no more than 0.2 for the second.

QGSW and NYDT cannot be ordered by “one-hybrid fitness for binding NBS DNA” value: no more than 0.2 for the first, no more than 0.2 for the second.

FEVN and SYGL cannot be ordered by “one-hybrid fitness for binding NBS DNA” value: no more than 0.2 for the first, no more than 0.2 for the second.

DVSL and FSVL cannot be ordered by “one-hybrid fitness for binding NBS DNA” value: no more than 0.2 for the first, no more than 0.2 for the second.

GGIV and WIDG cannot be ordered by “one-hybrid fitness for binding NBS DNA” value: no more than 0.2 for the first, no more than 0.2 for the second.

SEST and ITSH cannot be ordered by “one-hybrid fitness for binding NBS DNA” value: no more than 0.2 for the first, no more than 0.2 for the second.

PHRE and YSLW cannot be ordered by “one-hybrid fitness for binding NBS DNA” value: no more than 0.2 for the first, no more than 0.2 for the second.

MHAS and EVKR cannot be ordered by “one-hybrid fitness for binding NBS DNA” value: no more than 0.2 for the first, no more than 0.2 for the second.

KYAR and RINH cannot be ordered by “one-hybrid fitness for binding NBS DNA” value: no more than 0.2 for the first, no more than 0.2 for the second.

RQMV and SKKK cannot be ordered by “one-hybrid fitness for binding NBS DNA” value: no more than 0.2 for the first, no more than 0.2 for the second.

SEIC and GTAQ cannot be ordered by “one-hybrid fitness for binding NBS DNA” value: no more than 0.2 for the first, no more than 0.2 for the second.

WKRA and ACKF cannot be ordered by “one-hybrid fitness for binding NBS DNA” value: no more than 0.2 for the first, no more than 0.2 for the second.

LTRG and HTRA cannot be ordered by “one-hybrid fitness for binding NBS DNA” value: no more than 0.2 for the first, no more than 0.2 for the second.

LMYS and VAST cannot be ordered by “one-hybrid fitness for binding NBS DNA” value: no more than 0.2 for the first, no more than 0.2 for the second.

Compared with RRTK, AACG is lower in “one-hybrid fitness for binding NBS DNA” value: 0.228 for the first, no more than 0.2 for the second.

REWL and KLKS cannot be ordered by “one-hybrid fitness for binding NBS DNA” value: no more than 0.2 for the first, no more than 0.2 for the second.

EGLY and RIWY cannot be ordered by “one-hybrid fitness for binding NBS DNA” value: no more than 0.2 for the first, no more than 0.2 for the second.

GALF and QHWW cannot be ordered by “one-hybrid fitness for binding NBS DNA” value: no more than 0.2 for the first, no more than 0.2 for the second.

ETTR and AYLC cannot be ordered by “one-hybrid fitness for binding NBS DNA” value: no more than 0.2 for the first, no more than 0.2 for the second.

DYYT and ARWC cannot be ordered by “one-hybrid fitness for binding NBS DNA” value: no more than 0.2 for the first, no more than 0.2 for the second.

QKTK and GEYR cannot be ordered by “one-hybrid fitness for binding NBS DNA” value: no more than 0.2 for the first, no more than 0.2 for the second.

In the case of SRKR, the “one-hybrid fitness for binding NBS DNA” value is reported as 0.34.
